In the supplement of paper PMC3334620:
Over roughly 33,000 sequences, “E-score (-0.5 to 0.5)” has its median near -0.012; the highest 2% begin near 0.27. This is one part of the list.

Target: T1, Vhr1 (UniProt P40522)
T1 sequence: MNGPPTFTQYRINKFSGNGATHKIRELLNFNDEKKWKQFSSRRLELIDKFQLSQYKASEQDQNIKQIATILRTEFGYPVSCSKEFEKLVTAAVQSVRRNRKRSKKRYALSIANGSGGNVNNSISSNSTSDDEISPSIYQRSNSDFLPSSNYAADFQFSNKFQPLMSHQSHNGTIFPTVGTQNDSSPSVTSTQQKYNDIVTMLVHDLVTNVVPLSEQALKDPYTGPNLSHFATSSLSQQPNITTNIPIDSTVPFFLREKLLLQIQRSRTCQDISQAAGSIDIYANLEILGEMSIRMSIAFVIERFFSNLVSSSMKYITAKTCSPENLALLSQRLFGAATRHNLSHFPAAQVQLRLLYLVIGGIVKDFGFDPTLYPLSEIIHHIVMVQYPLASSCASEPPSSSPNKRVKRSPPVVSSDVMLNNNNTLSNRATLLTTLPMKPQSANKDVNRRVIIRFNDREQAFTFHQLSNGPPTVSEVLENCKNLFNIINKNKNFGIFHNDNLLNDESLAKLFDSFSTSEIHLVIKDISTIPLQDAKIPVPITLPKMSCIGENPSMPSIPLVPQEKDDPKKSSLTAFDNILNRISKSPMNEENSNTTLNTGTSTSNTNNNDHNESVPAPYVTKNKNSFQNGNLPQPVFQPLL
Test: PBM E-score (8-mer binding enrichment) (E-score (-0.5 to 0.5)); higher = stronger / more preferred TF binding; most listed sequences are background and not binding sites
Settings: protein concentration: 200 nM; construct: GST-full length
Summary of the method: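 Full-length yeast transcription factors or their DNA-binding domains, GST-tagged and expressed with PURExpress, were applied at about 100-200 nM to universal all-10-mer Agilent arrays. These arrays had been made double-stranded by primer extension on fresh or once-stripped slides. Detection used fluorescent anti-GST, normalisation used masliner, and E-scores for ungapped eight-base words pooled with reverse complements came from the Universal PBM Analysis Suite.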

Sequence | PBM E-score
ATGGCAAG | -0.0799
AGTATCAG | 0.017
AGCGCTTC | -0.0413
CCCGAACG | -0.0599
CAAAATGG | -0.0625
TAACGGAA | -0.0153
CACTTGGG | -0.0585
ACCCGGGT | 0.0435
AACTCGAA | -0.242
AGCTCATC | 0.0918
CGCAGTAC | 0.0987
GACGGGCA | -0.0539
TCGCCTAA | 0.0314
CCTAACAG | -0.00688
ACGTTATG | -0.0459
CATGGCTA | 0.224
GCTTATTA | 0.00965
ACCGTGAG | 0.0635
CTAGATCA | -0.0375
TTAAGGAA | -0.195
ACACGAAG | 0.175
AGGAAAGG | -0.33

Sequence | PBM E-score
CGTTCAAC | -0.0189
CTTGCTGC | -0.113
GATGCAAC | -0.174
ATACGAGG | -0.0491
AGCCGCGA | 0.211
GGACGATA | -0.176
CGTCGCGC | 0.0614
ACTCGCCG | 0.306
CATCCCGC | 0.0523
CAGACTCA | 0.27
GTACACCA | 0.104
GGACAGAA | -0.0334
GATTCCGA | 0.287
AAACTAGT | 0.049
ATGAGCGC | 0.0491
AAAGATTA | -0.109
CGCTCTTC | -0.0255
GCAGGACC | -0.204
CCACTATA | 0.0571
GTTTCCGA | -0.0865
CCCATTCG | 0.00579
GCCGGAGC | -0.0858

Sequence | PBM E-score
GAAATGAC | 0.184
AATTTTGC | -0.269
AAGCCCTG | -0.0175
AATATGCG | 0.0679
CCTATTAG | -0.167
CCCCATAA | -0.199
CAGCATCG | -0.0269
AGGGATTC | -0.111
CGCTGGCA | -0.0134
CCATATGC | 0.146
GATCTATA | -0.028
ACCTGTCC | -0.255
CTGGCCAC | 0.0647
CAAACCCG | -0.0955
AGTTAGCC | -0.0741
GGAACTGA | 0.0413
ACGGATAG | 0.0733
ACGGCCGA | 0.0328
CAGCGTCG | 0.111
ATGTAAGG | -0.0958
CCAGAGCC | -0.0954
CGCTTCTC | -0.0685

Sequence | PBM E-score
GACTAATA | 0.222
AGAATGCC | -0.23
TAGAAATA | -0.22
AGTGAACA | 0.0449
TGGTCGAA | -0.256
GATTTGTA | 0.0813
GTTGTTGA | 0.127
CGCTTTAG | -0.115
ACCGACGT | 0.0119
ATCTACTG | 0.0599
GCACGTTA | -0.141
CATGTGGG | 0.151
AACGGTTC | -0.149
CACAGTGA | 0.175
ACCTGTTC | -0.00327
AAAGACAA | -0.0425
CCGGCAAA | -0.0456
AGCACAAT | 0.069
ACACCATC | 0.2
GTAATAAA | 0.0464
GTCAGTTA | -0.0868
CATGTTTA | 0.0112

Sequence | PBM E-score
CCCAGGCG | -0.00747
CTCTTCTC | -0.158
CATTCACA | 0.00907
ACTTGCTC | -0.057
ACCATAAT | 0.214
CGTCGTAA | -0.116
CACAGATC | 0.0986
AATGGGTC | 0.075
CCGATCCC | -0.203
GCGCCATA | -0.0832
AGTTTGCA | 0.0611
AAATGCAG | 0.0175
TCTTGCCA | -0.0826
TCAGGGAA | -0.135
CAACTTCC | 0.014
ACCTAGTG | 0.146
AGAGACTA | -0.054
CACAGCTC | 0.0991
AAGATTGG | -0.035
GGCACGAC | -0.014
AAATTCTG | -0.0457
